Source: PubChem BioAssay AID488969 (Vanderbilt High Throughput Screening Facility, 2010)
Over roughly 110,000 compounds, “z-score” has its median near -0.1; the highest 2% begin near 2. This is one part of the list. Active and inactive are the calls of the source.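 How the source made its calls: active means z-score in the third read window above 3 or below -3; inactive means the rest.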

target: Metabotropic glutamate receptor 8 (Rattus norvegicus) (UniProt P70579); assay: rat mGluR8 modulators via GIRK flux, primary screen, cell-based, thallium flux, HTS (AID 488969); conditions: HEK293 rat mGluR8, GIRK (G protein-gated inwardly rectifying potassium channel) thallium flux, FluoZin2; at 10 µM; stronger effect = higher value; submaximal glutamate (EC20) added with thallium
Chain of UniProt P70579 (P70579 whole entry, looked up): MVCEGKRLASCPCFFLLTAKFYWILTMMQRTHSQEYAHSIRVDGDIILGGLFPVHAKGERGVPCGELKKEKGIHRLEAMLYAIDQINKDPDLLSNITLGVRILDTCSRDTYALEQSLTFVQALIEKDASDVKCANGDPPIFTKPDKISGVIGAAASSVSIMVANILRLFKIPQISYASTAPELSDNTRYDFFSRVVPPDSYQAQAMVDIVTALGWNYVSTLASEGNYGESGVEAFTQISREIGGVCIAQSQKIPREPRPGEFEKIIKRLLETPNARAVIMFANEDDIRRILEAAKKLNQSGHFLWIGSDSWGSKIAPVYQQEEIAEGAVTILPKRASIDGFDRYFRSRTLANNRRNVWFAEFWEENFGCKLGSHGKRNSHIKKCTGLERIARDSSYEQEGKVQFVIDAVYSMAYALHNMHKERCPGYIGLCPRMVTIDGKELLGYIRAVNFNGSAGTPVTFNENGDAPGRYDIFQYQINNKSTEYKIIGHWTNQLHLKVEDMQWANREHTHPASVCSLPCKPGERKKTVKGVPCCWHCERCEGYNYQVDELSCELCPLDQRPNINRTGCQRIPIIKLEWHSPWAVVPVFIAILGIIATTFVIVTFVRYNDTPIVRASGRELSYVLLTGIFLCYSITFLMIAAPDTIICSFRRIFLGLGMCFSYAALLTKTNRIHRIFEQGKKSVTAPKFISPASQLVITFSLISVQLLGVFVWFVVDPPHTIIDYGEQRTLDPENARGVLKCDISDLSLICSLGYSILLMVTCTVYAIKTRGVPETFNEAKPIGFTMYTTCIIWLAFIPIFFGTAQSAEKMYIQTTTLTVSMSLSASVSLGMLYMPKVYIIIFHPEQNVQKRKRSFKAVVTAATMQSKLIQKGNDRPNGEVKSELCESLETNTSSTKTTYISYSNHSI

Row | SMILES | z-score
1 | CC1CCN(S(=O)(=O)c2ccc(NC(=O)CN3CCN(c4ccccc4)CC3)cc2)CC1 | 0.0353
2 | COc1ccc(C(=O)Nc2cc(C)cc(C)c2)cc1S(=O)(=O)N1CCOCC1 | -0.311
3 | CCOC(=O)N1CCN(CC(O)COc2c(OC)cccc2OC)CC1 (centres undefined) | 0.676
4 | O=C(NCc1ccccc1)C(C(=O)c1ccc(F)cc1)n1ccccc1=O (centres undefined) | 1.37
5 | O=C(Nc1nnc(-c2ccc(Cl)cc2)o1)c1nc2ccccc2s1 | active: 4.07
6 | CC(C)(C)NC(=O)C(c1ccccc1F)N(Cc1ccco1)C(=O)c1csnn1 (centres undefined) | 1.63
7 | COC(=O)C1CCN(c2nc3ccccc3nc2C(C#N)C(=O)OCC(C)C)CC1 (centres undefined) | 0.0146
8 | Cc1ccc(N(CC(=O)Nc2cc(Cl)ccc2Oc2ccccc2)S(C)(=O)=O)cc1C | -0.153
9 | COc1ccc(CN2C(=S)NC(C)(C)CC2(C)O)cc1 (centres undefined) | -0.287
10 | Cc1nc2c(-c3ccccc3)c(C)[nH]n2c(=O)c1Cl | active: -3.24
11 | O=C(/C=C/c1ccccc1[N+](=O)[O-])NCc1cccnc1 | 0.162
12 | Cc1cc(C)c(NC(=O)Cn2nnc(C(=O)NCc3cccs3)c2N)c(C)c1 | -0.11
13 | CCOC(=O)C1CCCN(C(=O)COc2ccccc2O)C1 (centres undefined) | 0.0285
14 | CCc1ccc(N2C(=O)CN(Cc3ccc(OC)c(OC)c3)C2=S)cc1 | -0.147
15 | CC(=O)c1cnc2cc(-c3ccccc3)nn2c1C | 0.362
16 | Cc1nc2nc(COc3ccccc3)nn2c(C)c1Cl | -0.597
17 | c1ccc(-n2nnnc2-c2cnc(-c3ccncc3)nc2-c2cccs2)cc1 | -0.663
18 | COc1ccc(OCCSc2nnc3sc4ccccc4n23)cc1 | -1.11
19 | CC12CCC(C(=O)N(CC(O)CN3CCCCCC3)C1=O)C2(C)C (centres undefined) | 0.13
20 | O=C(CSc1nnc2c(Cl)cc(Cl)cn12)N1CCN(c2ccc(F)cc2)CC1 | -0.0326
21 | O=C(CCSc1ccccc1)N1CCOCC1 | 0.751
22 | CCCCNC(=O)c1ccc2c(c1)ncn2C1CCCC1 | -0.0454

Row | SMILES | z-score
23 | O=C(CCC(=O)N(c1ccccc1)C(C(=O)NC1CCCC1)c1ccncc1)Nc1cccnc1 (centres undefined) | 0.244
24 | CC1CCN(C(=O)CNC(=O)c2ccc(Cl)cc2Cl)CC1 | -0.0798
25 | Brc1cc2c(cc1C1Nc3ccccc3C3C=CCC31)OCO2 (centres undefined) | 0.172
26 | Cc1cc(C)cc(OC2CCCCC2NS(=O)(=O)c2ccccc2)c1 (centres undefined) | -0.848
27 | Cc1ccc(OCC(=O)Nc2ccc(N3CCOCC3)cc2)cc1 | -0.356
28 | Cc1cccc(NC(=O)CCn2ccnc2C)c1 | 1.08
29 | Cc1nn(-c2ccccc2)c2nc(C(F)(F)F)[nH]c(=O)c12 | -0.113
30 | CN(Cc1nc(-c2ccccn2)no1)S(=O)(=O)c1ccc(Br)cc1 | 0.403
31 | COC(=O)c1cc(OC)c(OC)cc1NC(=O)c1cc(-c2ccccc2)nc2ccccc12 | -0.917
32 | Cc1onc(-c2ccccc2)c1C(=O)NNC(=S)NC(=O)c1ccc(Cl)cc1Cl | 0.272
33 | CC(/C=N/NC(=O)c1ccc(CN2c3cccc4cccc(c34)S2(=O)=O)cc1)c1ccccc1 (centres undefined) | -0.557
34 | Cc1onc(-c2ccccc2Cl)c1C(=O)NCCn1ccc2ccccc21 | 0.0809
35 | Cc1ccc(C)c(S(=O)(=O)N2CCCOC2CNC(=O)C(=O)NCCCn2ccnc2)c1 (centres undefined) | 0.19
36 | Nc1nnc(SCc2coc(-c3ccc(Cl)cc3)n2)s1 | 0.0719
37 | COC(=O)C(OC(=O)c1ccc(OC)cc1)C(=O)OC | 0.00696
38 | CCN(CC)c1ccc(/C=N/Nc2nc3ccccc3[nH]2)c(O)c1 | -0.178
39 | COc1ccc(CN(CCO)CCO)cc1[N+](=O)[O-] | 0.405
40 | O=C(CCNS(=O)(=O)c1cccs1)Nc1nccs1 | -0.101
41 | COc1cccc2cc(C(=O)N3CCN(c4ccccn4)CC3)c(=O)oc12 | -0.0562
42 | O=C(COc1ccc2ccccc2c1Br)NNC(=O)Nc1ccccc1 | -0.0526
43 | COCCn1c(SCC(=O)N2CCCc3ccccc32)nc2c(c1=O)SC(C)C2 (centres undefined) | -0.393
44 | CCOc1ccc2c(C)nc(NC3=NC(C)(C)C=C(C)N3)nc2c1 | 1.18

Row | SMILES | z-score
45 | CCOc1ccc(CCNC(=O)C2CCCN(c3nnc(-n4cccc4)s3)C2)cc1OCC (centres undefined) | 0.457
46 | COCCN(C(=O)CNC(=O)c1ccco1)C(C(=O)NC1CCCCC1)c1cccc(OC)c1 (centres undefined) | -0.311
47 | O=C(COC(=O)CNC(=O)c1cccc(F)c1)NCCC1=CCCCC1 | -0.7
48 | COc1ccc(NC(=O)CSc2nncs2)cc1OC | 0.0455
49 | CCOC(=O)C1=C(c2ccccc2)NC(=S)NC1c1cc([N+](=O)[O-])ccc1OC (centres undefined) | 0.0688
50 | Cc1ccc(NC(=O)/C(=C\c2cccc(Br)c2)NC(=O)c2ccco2)cc1 | -0.288
51 | O=C1C=C(c2ccccc2)C[C@H](c2cccs2)[C@H]1n1cnc([N+](=O)[O-])c1 | -0.822
52 | CC1=C(C(=O)N(C)CCC#N)C2(CCCCC2)OC1=O | 0.484
53 | COC(=O)c1[nH]c2cccc(Cl)c2c1NC(=O)CN1CCCCC1C (centres undefined) | 0.263
54 | CCOC(=O)C(C)On1c(-c2ccccc2)nc2ccc([N+](=O)[O-])cc21 (centres undefined) | -0.0477
55 | c1ccc(-c2onc3c2CCCC3)cc1 | -0.0458
56 | Cc1ccc2c(c1)C(=NC1CCCCC1)c1cc3ccccc3nc1-2 | -0.0871
57 | Cc1cccn2c(=O)c(/C=C3\SC(=S)N(CC(C)C)C3=O)c(NCCCOC(C)C)nc12 | -0.103
58 | CCOc1ccc(-c2nc(C#N)c(N3CCN(Cc4ccccc4)CC3)o2)cc1 | 0.123
59 | O=C1CC(c2ccccc2)CC(=O)C1Sc1ccc(Cl)cc1 (centres undefined) | -0.107
60 | CCOC(=O)C1=C(NC(=S)NC(=O)c2ccccc2)c2ccccc2CC1C(C)C (centres undefined) | active: 3.46
61 | COc1ccccc1NC(=O)c1cc(S(=O)(=O)N2CCC3(CC2)OCCO3)ccc1F | -0.251
62 | Cc1nc(NC(=O)C2CC3CCCC(C2)C3=O)sc1C (centres undefined) | 0.238
63 | O=C1CC(C(=O)Nc2ccc(Br)cc2)C2(CCCC2)O1 (centres undefined) | 2.34
64 | COc1ccc(C2=CC(c3ccc(OC)c(OC)c3)n3nnnc3N2)c(OC)c1 (centres undefined) | -0.596
65 | Cc1ccc2nc(-c3ccc(NC(=O)CN(c4ccccc4C)S(C)(=O)=O)cc3)sc2c1 | 0.0306
66 | CCOCC(=O)Nc1cc(C(=O)OC)cc(C(=O)OC)c1 | 0.617

Row | SMILES | z-score
67 | Cc1ccc(-c2nnc(SCC(=O)NCC3CCCO3)n2C)cc1 (centres undefined) | -0.0403
68 | CCOc1ccc(/C=N/NC(=O)c2ccccc2NC(=O)c2ccc(OC)cc2)cc1 | -0.0531
69 | CCN(Cc1ccccc1)S(=O)(=O)c1ccc(C(=O)Nc2nnc(C3CC3)o2)cc1 | 0.994
70 | COc1ccc(/C=N/NC(=O)CC(=O)NCc2cccnc2)cc1 | 0.13
71 | O=c1cc(C(F)(F)C(F)F)oc2ccccc12 | -0.0206
72 | N#CC1(C#N)CC(C=O)=C(N)C1(C#N)CC(=O)c1ccc(F)cc1 (centres undefined) | -0.299
73 | Cc1cc2nc3c(nc2cc1C)C1(C(=O)O)CCC3(C)C1(C)C (centres undefined) | -0.167
74 | CCc1ccc(S(=O)(=O)NC(CC(=O)O)c2ccccc2)cc1 (centres undefined) | 0.918
75 | C=CCn1c(-c2ccco2)n[nH]c1=S | 0.645
76 | CSc1nc(N)nc(-c2cccs2)c1C#N | -0.212
77 | C=CCOc1ccc(C(=O)CC)cc1OC | 0.729
78 | Cc1nc2ncnn2c(C)c1Cc1c(Cl)cccc1Cl | -0.306
79 | CCCc1ccc(-c2cc(C(=O)NCCc3ccc(S(N)(=O)=O)cc3)c3ccccc3n2)cc1 | -0.0952
80 | C=CCNC(=O)COc1ccc(Br)cc1Cl | 0.0502
81 | CN1C(=O)N(C)C2(c3ccccc3)Nn3c(s/c(=C/c4ccccc4F)c3=O)=NC12c1ccccc1 (centres undefined) | -0.12
82 | C=CCN(C)NC(=S)Nc1ccccc1 | -0.0707
83 | COc1ccccc1NC(=O)CS(=O)(=O)c1cccc2nsnc12 | 1.99
84 | CC1CN(Cc2ccccn2)CCC1=O (centres undefined) | -0.215
85 | O=C(NCc1ccco1)C(C(=O)c1ccccc1)n1ccccc1=O (centres undefined) | 0.391
86 | O=C(NCC1CCCO1)/C(=C/c1ccc(Cl)cc1)NC(=O)c1ccccc1 (centres undefined) | 0.00497
87 | Cc1ccc([N+](=O)[O-])cc1NC(=O)CCSc1ccc(Cl)cc1 | 0.07
88 | CCOC(=O)CN1NC2(CCC(C)CC2)NC1=S (centres undefined) | -0.408

Row | SMILES | z-score
89 | Cc1cc(-c2n[nH]c(=S)n2/N=C/C(Cl)=C/c2ccccc2)n[nH]1 | -0.527
90 | Cn1c(=O)c2c(nc(CN3CCCCC3)n2CCCc2ccccc2)n(C)c1=O | -0.271
91 | CN(C)S(=O)(=O)c1cccc(C(=O)OCC(=O)NCc2ccccc2)c1 | -0.0286
92 | O=C(c1cccc2ccccc12)N1CCN=C1SCc1ccc([N+](=O)[O-])cc1 | -0.184
93 | N#CC1=C(N)Oc2n[nH]c(-c3cccs3)c2C1c1ccsc1 (centres undefined) | -2.2
94 | COc1ccc(N2CCN(C(c3cccc(OC)c3OC)c3nnnn3C3CCCC3)CC2)cc1 (centres undefined) | -0.849
95 | CCCCCCOc1ccc(NC(=O)CC2C(=O)N(CC)C(=S)N2Cc2ccco2)cc1 (centres undefined) | 0.42
96 | CCOc1ccccc1C(=O)N1CCC(C(=O)c2ccc(F)cc2)CC1 | 0.0981
97 | CCCCn1c(NS(=O)(=O)c2ccccc2)c(S(=O)(=O)c2ccc(C)cc2)c2nc3ccccc3nc21 | -0.41
98 | O=C(NCc1ccccc1)C1CCCN(S(=O)(=O)c2cccnc2)C1 (centres undefined) | 0.269
99 | O=C(CN1CCN(c2nc(-c3ccc(Cl)cc3)cs2)CC1)NCc1ccco1 | -0.029
100 | COC(=O)C1=NN(c2ccccc2)C2C(=O)N(c3ccccc3OC)C(=O)C12 (centres undefined) | active: -3.39
101 | Cc1[nH]c2ccc(Br)cc2c(=O)c1CN1CCCCC1 | -0.169
102 | Cc1cccc(Cn2cnc3c(nnn3Cc3ccccc3F)c2=O)c1 | 0.292
103 | Cc1c(NC(=O)CSc2n[nH]c(-c3ccccc3)n2)c(=O)n(-c2ccccc2)n1C | 0.107
104 | CC(=O)Nc1cc(C(F)(F)F)ccc1OCCOc1ccccc1 | -1.36
105 | Cc1nc2sc(C(c3ccco3)N3CCN(c4cccc(Cl)c4)CC3)c(O)n2n1 (centres undefined) | 0.32
106 | CCOC(=O)Cn1c(=O)c2c(nc(N3CCOCC3)n2C)n(C)c1=O | -0.0307
107 | O=c1c2ccccc2nc2n1C(CSCc1ccc(Cl)cc1)CS2 (centres undefined) | -0.757
108 | COc1cccc(C(=O)C2CN(c3ccccc3)CC2c2ccc(Cl)cc2)c1 (centres undefined) | 0.0208
109 | CCOc1ccc(C2CC(c3cccc(OC)c3)Nc3nc(N)nn32)cc1 (centres undefined) | 0.488
